The RNAGym collection of RNA variant scans (doi:10.1093/nar/gkz1192)
The source gives no read counts; variants with many changes may rest on few reads.

B1: CPEB3 Ribozyme (parent)
chain: UAACAGGGGGCCACAGCAGAAGCGUUCACGUCGCAGCCCCUGUCAGAUUCUGGUGAAUCUGCGAAUUCUGCUGUAUAUCUC

Variants of: B1
Assay: self-cleavage, relative activity (ratio to wild type); higher = more cleavage; in vitro, sequencing
Outline: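 After error-prone PCR and barcoding, CPEB3 ribozyme mutant libraries were transcribed with T7 RNA polymerase at 37°C for 5 hours, then given 15 min with DNase I before an EDTA stop, and they cleaved during both steps. Reverse transcription with template switching preceded Illumina sequencing. Relative activity divides a variant's cleaved/total read fraction by the unmutated ribozyme's. At least 5 reads were required per variant, and three batches were averaged.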

With UAACAGGGGGCCACAGCAGAAGCGUUCACGACGCAGCCCCUGACAGAUUCUGGUGAAUCCGCGAAUUCUGCUGUAUAUCUC as the variant, how does the self-cleavage read?
The self-cleavage was 0.29.

With UAACAGGGGGCCACAGCAGAAGCGUUCACGACGCAGCCCCUGUCAGAUUCUGCUGAAUCUGCGAAUUCUGCUGUACAUCUC as the variant, how does the self-cleavage read?
The self-cleavage was 0.48.

For UAACAGGGGGCCACAGCAGAAGCGUUCACGACGCAGCCCCUGUCAGAUACUGGUGGAUCUGCGAAUUCUGCUGUAUAUCUC, which self-cleavage is on record?
Its self-cleavage is 0.38.

For UAACAGGGGGCCACAGCAGAAGCGUUCACGACGCAGCCCCCGUCAGAUUCUGGUUAAUCUGCGAAUUCUGCUGUAUAUCUC, which self-cleavage is on record?
The self-cleavage was 0.49.

With UAACAGGGGGCCACAGCAGAAGCGUUCACGACGUAGCCCCUGUCAGAUUCUGGUGAAUCUGCGAAUUCUGCUGUAUGUCUC as the variant, how does the self-cleavage read?
Its self-cleavage is 0.07.

Which self-cleavage does the source give for UAACAGGGGGCCACAGCAGAAGCGUUCACGCCGCAGCCCCUGUCAGCUUCUGGUGAAUCCGCGAGUUCUGCUGUAUAUCUC here?
The self-cleavage was 0.12.

With UAACAGGGGGCCACAGCAGAAGCGUUCACGCCGUAGCCCCUGUCAGACUCCGGUGAGUCUGCGAAUUCUGCUGUAUAUCUC as the variant, how does the self-cleavage read?
Its self-cleavage is 0.14.

With UAACAGGGGGCCACAGCAGAAGCGUUCACGAUGCAGCCCCUGUCAGAUUCUGGUGAAUCUGCGAAUUCUGCUGUAUAUCAC as the variant, how does the self-cleavage read?
The self-cleavage was 0.45.

For UAACAGGGGGCCACAGCAGAAGCGUUCACGCCGCUGCCCCUGUCGGAUUCUGGUGAAUCUGCGAAUUCCGCUGUAUAUCUC, which self-cleavage is on record?
Its self-cleavage is 0.08.

With UAACAGGGGGCCACAGCAGAAGCGUUCACGACACAGCCCCAGUCAGAUCCUGGAGAGCCUGCGAAUUCUGCUGUAUAUCUC as the variant, how does the self-cleavage read?
Its self-cleavage is 0.16.

For UAACAGGGGGCCACAGCAGAAGCGUUCACGACGCAGCCCCUGUCAGAUUCUGGUGAAUCUGCGAAUUCGGCUGCGUAUCUC, which self-cleavage is on record?
Its self-cleavage is 0.24.

With UAACAGGGGGCCACAGCAGAAGCGUUCACGCCGCAGCCUCUGUCAGAAUCUGGUGAAUCUGCGAAUUCUGCUGUAUAUCUC as the variant, how does the self-cleavage read?
The self-cleavage was 0.12.

With UAACAGGGGGCCACAGCAGAAGCGUUCACGACGCAGCCCCUGUCAGAUUCUGGUGAAUCUGCUAAUUAUGCUGUAUAUCUC as the variant, how does the self-cleavage read?
Its self-cleavage is 0.46.

For UAACAGGGGGCCACAGCAGAAGCGUUCACGACGCAGCCCCUGUCAGAUUCUGGUGAAUCUGCGAAUUCUGCAGUAAACCUC, which self-cleavage is on record?
The self-cleavage was 0.15.

Which self-cleavage does the source give for UAACAGGGGGCCACAGCAGAAGCGUUCACGACGCAGCCCAUGUCAGAUUCUGGUGAGUCUGCGAAUUCUGCUGUAUAUCUC here?
Its self-cleavage is 0.49.

For UAACAGGGGGCCACAGCAGAAGCGUUCACGACGCAGCCCCAGUCAGAUUCUGGUGAAUCUGCGAAUUCUGCCGUAUAUCUC, which self-cleavage is on record?
Its self-cleavage is 0.22.

With UAACAGGGGGCCACAGCAGAAGCGUUCACGCCGUAGCCCCUGUCAGUUUCUGGUGAAUCUGCGAAUUCUGCUGUUUAUCUC as the variant, how does the self-cleavage read?
The self-cleavage was 0.09.

With UAACAGGGGGCCACAGCAGAAGCGUUCACGCCGCUGCCCCUGUCAGAUUCUGGUGAUACUGCGAUUUCUGCUGUAUAUCUC as the variant, how does the self-cleavage read?
The self-cleavage was 0.09.

Which self-cleavage does the source give for UAACAGGGGGCCACAGCAGAAGCGUUCACGCCGCAGCCCCUGUCGGAUUCUGGUGAGUCUGCGAAUUCUGCUGUAUAUCUC here?
Its self-cleavage is 0.48.

For UAACAGGGGGCCACAGCAGAAGCGUUCACGACGCAGCCCCUGUCAGACUCUGGUGUAUCUGCGAAUUCUGCUGUAUACCUC, which self-cleavage is on record?
The self-cleavage was 0.11.

With UAACAGGGGGCCACAGCAGAAGCGUUCACGCCGCAGCCCCUGUCAGAUUCUGGUGUAUCUGCGAAUUCUGCUGUAUAUCUA as the variant, how does the self-cleavage read?
Its self-cleavage is 0.35.

With UAACAGGGGGCCACAGCAGAAGCGUUCACGCCGCGGCCCCUGUCAGAUUCUGGAGAAUCUGCGAAUUCUGCCGUAUAUCCC as the variant, how does the self-cleavage read?
The self-cleavage was 1.21.

With UAACAGGGGGCCACAGCAGAAGCGUUCACGACGCAGCCCCCGUCAGAUUCUGGAGAAUCUGCGAAUUCUGCUGUAUAACUC as the variant, how does the self-cleavage read?
Its self-cleavage is 0.67.

Which self-cleavage does the source give for UAACAGGGGGCCACAGCAGAAGCGUUCACGACGCAGCCCCUGUCAGAUUCUGGUGAAUCCGCGAAUUCUCCUGUAUAUCUC here?
The self-cleavage was 0.13.

Which self-cleavage does the source give for UAACAGGGGGCCACAGCAGAAGCGUUCACGCCGCAGCCCCUGUCGGAUUCUGGUGAAUCUGCGAAUUCCGCUGUAUAUCUC here?
Its self-cleavage is 0.26.

Which self-cleavage does the source give for UAACAGGGGGCCACAGCAGAAGCGUUCACGACGUAGCCCCUGUCAGAUCCUGGUGAAUCUGCAGAUUCUGCUGUAUAUCUC here?
Its self-cleavage is 0.1.

Which self-cleavage does the source give for UAACAGGGGGCCACAGCAGAAGCGUUCACGCCGCAGCCCCUGUCGGAUUCUGGUGUACCUGCGAAUUCAGCUGUAUAUCUC here?
Its self-cleavage is 0.12.

Which self-cleavage does the source give for UAACAGGGGGCCACAGCAGAAGCGUUCACGCCGCAGCCCCUGUCUGAUGCUGGUGGAUCUGCGAAUUCUGCUGUAUAUCUC here?
The self-cleavage was 0.09.

Which self-cleavage does the source give for UAACAGGGGGCCACAGCAGAAGCGUUCACGACGCAGCCCUUGUCAGAUUCUGGCGAAUCUGCGAAUUCUGCUGUAUAUAUC here?
The self-cleavage was 0.17.

For UAACAGGGGGCCACAGCAGAAGCGUUCACGCCGCAGCCCCUGUCGGAUUCUGGUGAAACUGCGAAUUCUGCUGUAUAUCUC, which self-cleavage is on record?
The self-cleavage was 0.08.

With UAACAGGGGGCCACAGCAGAAGCGUUCACGCCGCAGCCCCUGUCAGAUUCUGGUGGGUCUGCGAAUUCUGCUGUAUAUCUC as the variant, how does the self-cleavage read?
Its self-cleavage is 0.36.

With UAACAGGGGGCCACAGCAGAAGCGUUCACGCCGCAGCCCCUGUCGGAUUCUGGCGAAUCUGCGAAUUCUGCUGUAUAUCUC as the variant, how does the self-cleavage read?
Its self-cleavage is 0.32.

Which self-cleavage does the source give for UAACAGGGGGCCACAGCAGAAGCGUUCACGCCGCAGCCUCUGUCAGGUUCUGGUGAAUCUGCGAAUUCUGCUAUAUAUCUC here?
The self-cleavage was 1.16.

With UAACAGGGGGCCACAGCAGAAGCGUUCACGCCGCAGCCCCUGUCAGAUUCUGGUGAAUCUGCGGGUUCUGCUGUAUAUCUC as the variant, how does the self-cleavage read?
Its self-cleavage is 0.1.
